Read-outs that look alike come from different tables or passages of the source.
Tested on: M. tuberculosis
Assay: Quantification of intracellular ATP

Row | Compound | Intracellular ATP levels (RLUs/CFUs) (M. tuberculosis, 2 h treatment, 2B8/RA13 31.25–125 µM, CCCP 15 µM, BDQ 18 µM, TRZ 80 µM) | Intracellular ATP levels (RLUs/CFUs)
1 | COc1nc2ccc(Br)cc2cc1[C@@H](c1ccccc1)[C@@](O)(CCN(C)C)c1cccc2ccccc12 [BDQ, bedaquiline, reference compound] | significantly reduced | 
2 | CCCCCCCCCCCCCNC(=O)CCCc1cnc(N)[nH]1 [RA13] |  | not affected

— PMC6365497, “2-aminoimidazoles collapse mycobacterial proton motive force and block the electron transport chain” (Scientific Reports, 2019)
